Laboratory results published in the supplement of paper PMC8728848.
The list shows a part of the results.

Columns and labels:
Assay in all cases: glycan array binding signal (z-score within array); higher = stronger binding
Conditions in all cases: glycan notation: IUPAC condensed, linker removed
[1] = biological target: Fuc(a1-2)Gal
Summary of the method: (§1)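 Glycan array data were curated from 3228 arrays in the Consortium for Functional Glycomics database and kept only where the protein sequence was available. Glycan names were converted to IUPAC-condensed notation, and columns mapping to the same glycan were averaged. The binding signal is a within-array Z-score, averaged across arrays of the same protein sequence at different concentrations or buffers and across linkers. Negative Z-scores can be read as non-binding.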

[2] = biological target: Fuc(a1-2)Gal(b1-3)GalNAc
Summary of the method: as §1

[3] = biological target: Fuc(a1-2)Gal(b1-3)GalNAc(b1-3)Gal
Summary of the method: as §1

[4] = biological target: Fuc(a1-2)Gal(b1-3)GalNAc(b1-3)Gal(a1-4)Gal(b1-4)Glc
Summary of the method: as §1

[5] = biological target: Fuc(a1-2)Gal(b1-3)GalNAc(b1-4)[Neu5Ac(a2-3)]Gal(b1-4)Glc
Summary of the method: as §1

[6] = biological target: Fuc(a1-2)Gal(b1-3)GlcNAc
Summary of the method: as §1

[7] = biological target: Fuc(a1-2)Gal(b1-3)GlcNAc(b1-3)Gal(b1-4)Glc
Summary of the method: as §1

[8] = biological target: Fuc(a1-2)Gal(b1-3)[Fuc(a1-4)]GlcNAc
Summary of the method: as §1

[9] = biological target: Fuc(a1-2)Gal(b1-4)Glc
Summary of the method: as §1

[10] = biological target: Fuc(a1-2)Gal(b1-4)Glc6S
Summary of the method: as §1

[11] = biological target: Fuc(a1-2)Gal(b1-4)GlcNAc
Summary of the method: as §1

[12] = biological target: Fuc(a1-2)Gal(b1-4)GlcNAc(b1-2)Man(a1-3)[Fuc(a1-2)Gal(b1-4)GlcNAc(b1-2)Man(a1-6)]Man(b1-4)GlcNAc(b1-4)GlcNAc
Summary of the method: as §1

[13] = biological target: Fuc(a1-2)Gal(b1-4)GlcNAc(b1-2)Man(a1-6)[Gal(b1-4)GlcNAc(b1-2)Man(a1-3)]Man(b1-4)GlcNAc(b1-4)GlcNAc
Summary of the method: as §1

[14] = biological target: Fuc(a1-2)Gal(b1-4)GlcNAc(b1-3)Gal(b1-4)GlcNAc
Summary of the method: as §1

[15] = biological target: Fuc(a1-2)Gal(b1-4)GlcNAc(b1-3)Gal(b1-4)GlcNAc(b1-3)Gal(b1-4)GlcNAc
Summary of the method: as §1

[16] = biological target: Fuc(a1-2)Gal(b1-4)GlcNAc6S
Summary of the method: as §1

[17] = biological target: Fuc(a1-2)Gal(b1-4)[Fuc(a1-3)]GlcNAc
Summary of the method: as §1

[18] = biological target: Fuc(a1-2)Gal(b1-4)[Fuc(a1-3)]GlcNAc(b1-3)Gal(b1-4)[Fuc(a1-3)]GlcNAc
Summary of the method: as §1

[19] = biological target: Fuc(a1-2)Gal(b1-4)[Fuc(a1-3)]GlcNAc(b1-3)Gal(b1-4)[Fuc(a1-3)]GlcNAc(b1-3)Gal(b1-4)[Fuc(a1-3)]GlcNAc
Summary of the method: as §1

[20] = biological target: Fuc(a1-2)Gal6S(b1-4)Glc
Summary of the method: as §1

[21] = biological target: Fuc(a1-2)Gal6S(b1-4)Glc6S
Summary of the method: as §1

[22] = biological target: Fuc(a1-2)Gal6S(b1-4)GlcNAc
Summary of the method: as §1

[23] = biological target: Fuc(a1-2)[Gal(a1-3)]Gal
Summary of the method: as §1

[24] = biological target: Fuc(a1-2)[Gal(a1-3)]Gal(b1-3)GlcNAc
Summary of the method: as §1

[25] = biological target: Fuc(a1-2)[Gal(a1-3)]Gal(b1-4)Glc
Summary of the method: as §1

[26] = biological target: Fuc(a1-2)[Gal(a1-3)]Gal(b1-4)GlcNAc
Summary of the method: as §1

[27] = biological target: Fuc(a1-2)[Gal(a1-3)]Gal(b1-4)[Fuc(a1-3)]GlcNAc
Summary of the method: as §1

[28] = biological target: Fuc(a1-2)[Gal(a1-4)]Gal(b1-4)GlcNAc
Summary of the method: as §1

[29] = biological target: Fuc(a1-2)[GalNAc(a1-3)]Gal
Summary of the method: as §1

[30] = biological target: Fuc(a1-2)[GalNAc(a1-3)]Gal(b1-3)GlcNAc
Summary of the method: as §1

B1: RfpB (Mycobacterium tuberculosum), O05594 (protein)
chain: MAAGLVTASMSLSTAVAHAGPSPNWDAVAQCESGGNWAANTGNGKYGGLQFKPATWAAFGGVGNPAAASREQQIAVANRVLAEQGLDAWPTCGAASGLPIALWSKPAQGIKHAGPSPNWDAVAQCESGGNWAANTGNGKYGGLQFKPATWAAFGGVGNPAAASREQQIAVANRVLAEQGLDAWPTCGA
- glycan array binding signal (z-score) [1]: -0.233
- glycan array binding signal (z-score) [2]: -0.406
- glycan array binding signal (z-score) [3]: -0.157
- glycan array binding signal (z-score) [4]: -0.482
- glycan array binding signal (z-score) [5]: -0.348
- glycan array binding signal (z-score) [6]: 0.352
- glycan array binding signal (z-score) [7]: 0.242
- glycan array binding signal (z-score) [8]: -0.637
- glycan array binding signal (z-score) [9]: 0.119
- glycan array binding signal (z-score) [10]: 0.347
- glycan array binding signal (z-score) [11]: -0.322
- glycan array binding signal (z-score) [12]: -0.692
- glycan array binding signal (z-score) [13]: 1.16
- glycan array binding signal (z-score) [14]: -0.41
- glycan array binding signal (z-score) [15]: 0.003
- glycan array binding signal (z-score) [16]: 1.15
- glycan array binding signal (z-score) [17]: -0.217
- glycan array binding signal (z-score) [18]: -0.487
- glycan array binding signal (z-score) [19]: -0.564
- glycan array binding signal (z-score) [20]: 0.9
- glycan array binding signal (z-score) [21]: 1.14
- glycan array binding signal (z-score) [22]: -0.188
- glycan array binding signal (z-score) [23]: 0.278
- glycan array binding signal (z-score) [24]: -0.591
- glycan array binding signal (z-score) [25]: 0.337
- glycan array binding signal (z-score) [26]: 0.359
- glycan array binding signal (z-score) [27]: -0.47
- glycan array binding signal (z-score) [28]: 0.094
- glycan array binding signal (z-score) [29]: 0.323
- glycan array binding signal (z-score) [30]: -0.544
